Laboratory results taken from PubChem BioAssay AID434955 (Southern Research Specialized Biocontainment Screening …, 2010).
This is one part of the list. The main result of the screen is listed elsewhere. These columns were measured beside it and carry no call. Most of these compounds were active or inconclusive in the main read-out, so they are no random draw.

Assay: beta-lactam sensitization of Mtb H37Rv, H37Rv (AID 434955);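 also: growth measured after seven days incubation then overnight dye step; 0% = bacteria only wells and 100% = bacteria with antibiotic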
Conditions: M. tuberculosis H37Rv growth with meropenem, percent inhibition; measured here: primary screen without meropenem; at 25 µM

Structure (SMILES)	inhibition [%]
O=C(NCCOc1ccc(F)cc1)C1CCN(S(=O)(=O)c2ccccc2)CC1	-1.57
CC(=O)C1C(c2ccc3ncccc3c2)NC(=O)NC1(O)C(F)(F)F (centres undefined)	-7.01
O=C(Nc1nc2cc3c(cc2s1)OCO3)C1CCCCC1	1.21
C[C@@H](NC(=O)c1[nH]cnc1C(=O)Nc1cccc(Cl)c1)c1ccccc1	65.3
CCOC(=O)c1ccccc1OCc1cc(/C=N/n2cncn2)ccc1OC	6.17
Cc1ccc(CN(C)C(=O)c2cc(COc3cccc(C(F)(F)F)c3)on2)o1	19.7
CCS(=O)(=O)N1CCCC(c2nc(-c3cccc(OC)c3)no2)C1 (centres undefined)	3.5
COc1cc(NC(=O)c2cccs2)ccc1NC(=O)Cc1ccccc1	-0.81
CSc1ccccc1NC(=O)CN(c1cccc(C)c1)S(C)(=O)=O	1.75
O=C(CCN1C(=O)c2ccccc2C1=O)Nc1ccc(-c2cn3ccsc3n2)cc1	-4.64
Cn1c(SCC(=O)Nc2ccccc2F)nnc1-c1cccnc1	0.43
O=C(OCC(=O)N1CCc2ccccc21)c1ccc(Cl)nc1	27.3
CC1(C)CC(=O)C(C=NCCCn2ccnc2)=C(O)C1	-8.44
C/C(=N\NC(=O)c1ccccc1)C1C2C=CC(C2)C1(C)C (centres undefined)	3.15
O=C(NCc1ccco1)c1cc(-c2cccs2)on1	0.15
Cc1cccc(NC(=O)Cn2c(=O)oc3ccccc32)n1	-11.5
COc1ccc2c(c1)c(C(C)=O)c(C)n2-c1ccccc1	-9.85
CCC(C)NC(=O)C1CCN(S(=O)(=O)c2cccs2)CC1 (centres undefined)	5.86
COc1ccc(CN2CCC(n3nccc3NC(=O)c3cccc(F)c3)CC2)cc1O	5.47
COc1ccc(OC)c(NC(=O)c2cccc(N3C(=O)C4C5CCC(C5)C4C3=O)c2)c1 (centres undefined)	18.1
CC(C)(C)c1ccc(C(=O)NCc2nnc(SCC(=O)NCC3CCCO3)o2)cc1 (centres undefined)	-3.17
CN(CC1CCCO1)S(=O)(=O)c1ccc(C(=O)Nc2nnc(-c3ccccc3)o2)cc1 (centres undefined)	93.5
CCC(CC)c1nnc(NC(=O)c2ccc(N3CCCCC3)c([N+](=O)[O-])c2)s1	41.8

Structure (SMILES)	inhibition [%]
CCN(CC)C(=O)c1ccc(NC(=O)c2cccc(S(=O)(=O)N3CCN(C)CC3)c2)cc1	1.34
c1ccc2c(c1)OCC(c1nn3c(Cn4nnc5ccccc54)nnc3s1)O2 (centres undefined)	1.34
Cc1c(C(=O)OC/C(O)=C(\C#N)c2nc3ccccc3[nH]2)oc2ccc(Br)cc12	11.9
Cc1ccc(NC(NC(=O)c2ccccc2[N+](=O)[O-])C(Cl)(Cl)Cl)cc1 (centres undefined)	-0.81
CCOC(=O)N/C(N)=N/c1nc2ccccc2s1	-3.05
Cc1cccc(C)c1OCc1cc(C(=O)NC2CCC(O)CC2)no1 (centres undefined)	5.33
Cc1ccc(NC(=O)CSc2nc3c(c(=O)[nH]2)CCC3)cc1C	3.75
CC(C)(C)N1Cc2ccccc2C1=N	1.47
O=C(/C=C/c1cccs1)Nc1ccc(N2CCOCC2)c(S(=O)(=O)Nc2cc(Cl)ccc2Cl)c1	-6.56
O=c1c(Cl)c(Nc2cccc(Cl)c2)cnn1-c1nc2ccccc2s1	-3.66
COc1ccc(CC(=O)OCC(=O)Nc2ncc(Cl)cc2Cl)cc1OC	3.51
COc1cc(C(=O)NNC(=O)c2cc(-c3ccccc3)n[nH]2)cc(OC)c1C	19.2
Cc1ccc(F)cc1CNC(=O)C1CCC(=O)N(CCCN2CCCC2=O)C1 (centres undefined)	-5.34
COc1ccccc1CNC(=O)c1cc2c(C)nn(Cc3ccc(F)cc3)c2s1	-1.67
Cc1cccc2[nH]c(CN(C)C(=O)C3CCC(=O)N(CCc4ccccc4)C3)nc12 (centres undefined)	-4.65
CCc1ccc(NC(=S)Nc2ccc3cn[nH]c3c2)cc1	32
O=C(COc1ccccc1)N(Cc1cc2ccccc2[nH]c1=O)CC1CCCO1 (centres undefined)	-7.55
CCCc1cc(NC(=O)COC(=O)c2nccnc2N)n(-c2ccccc2)n1	51.6
Cc1ccc2nc(-c3ccc(NC(=O)c4ccco4)cc3)[nH]c2c1	2
Cc1ccc(OC(=O)NC2CCS(=O)(=O)C2)cc1C (centres undefined)	3.11
O=C(CSc1nnc(CNC(=O)c2ccccc2)o1)NCCc1ccccc1	9.21
CCOc1ccc(CN2CCC(n3nccc3NC(=O)c3ccccc3OC)CC2)cc1	0.48
O=C(COc1cccc2cccnc12)N/N=C/c1ccc(O)cc1	7.03

Structure (SMILES)	inhibition [%]
Nc1c(C(=O)NC2CC2)c2nc3ccccc3nc2n1-c1ccc2c(c1)OCO2	7.17
Cn1cc(Cl)cc(C(=O)Nc2ccccc2)c1=O	-2.53
CCOc1ccc(CCNC(=O)CSc2cc(=O)n(C)c3cc(Cl)ccc23)cc1OCC	10.6
O=S(=O)(c1ccc(Nc2ccc3c(c2)OCO3)nc1)N1CCOCC1	5.42
CCCN(CCC)C(=O)c1c(C)[nH]c(C(=O)OCC)c1C	-5.74
O=S(=O)(c1cccc(C(F)(F)F)c1)N1CCN(c2nnnn2-c2ccccc2)CC1	1.17
O=C(Nc1ccc2c(c1)OCO2)C1(S(=O)(=O)c2ccc(Cl)cc2)CC1	-3.81
O=C(N=C1SC2CS(=O)(=O)CC2N1CCc1ccccc1)C1CCCCC1 (centres undefined)	-1.13
CC1CN(C(=S)NC(=O)c2cccc([N+](=O)[O-])c2)CC(C)O1 (centres undefined)	50.2
CC#CC[N+](C)(C)CCCCCCCCCCCC	15.4
CCN(CC)S(=O)(=O)c1ccc(N2CCOCC2)c(NC(=O)c2cc(C)cc(C)c2)c1	7.72
CCOC(=O)c1cnc(COc2ccc(OC)cc2)[nH]c1=O	50
Cc1ccc(C(=O)Nc2ccccc2C(=O)N2CCCC(C)C2)cc1 (centres undefined)	-4.04
CC(=O)N1CCN(c2cccc(C)c2C)CC1	-6.33
O=C(c1ccc(N2C(=O)c3ccccc3C2=O)cc1)N1CCCCC1	4.03
O=C(NC(=S)NC1CCCCC1)c1ccccc1	6.74
O=C(NCCc1cccnc1)C1CCC(=O)N(Cc2cccc(C(F)(F)F)c2)C1 (centres undefined)	0.81
CC(=O)c1c(C)[nH]c(C(=O)OCC(=O)Nc2nnc(-c3ccccc3)o2)c1C	49.6
O=C(Cc1ccc(Br)cc1)Nc1ccccc1N1CCCC1	6.06
CC12CCC(=O)N1C(C(=O)Nc1ccc(Br)cc1Cl)CS2 (centres undefined)	-2.87
S=c1[nH]nc(COc2ccccc2)n1/N=C/c1cccc(Cl)c1Cl	-1.79
COc1ccc(CCNC(=O)CN(c2ccccc2OC)S(C)(=O)=O)cc1	-4.02
CCCCOC(=O)n1c(SCC(=O)N(CC)CC)nc2ccccc21	5.01
